# Article PMC11995724, “Antibiotic target discovery by integrated phenotypic and activity-based profiling of electrophilic fragments” (Cell chemical biology, 2025)
# Hit rate of the full screen: of about 3,200 compounds, about 75 (2%) showed an effect of 50% or more. This is one part of the list.
# System: T1, S. aureus MSSA476
# T1 construct: MSSA476
# Set-up: species or system S. aureus MSSA476 (TSB) or V. cholerae SAD30 (LB); 384-well bacterial growth screen at 25 uM, OD600 relative to DMSO control
# Details: relative growth, OD600, TSB; 25 µM; inhibitor
row,SMILES,% of control remaining [%]
1,"C=CC(=O)N1CCC(C(=O)NCc2cccc(Cl)c2F)CC1 [3-N12, N-[(3-chloro-2-fluorophenyl)methyl]-1-(prop-2-enoyl)piperidine-4-carboxamide]",95.4288
2,"C=CC(=O)NCC1=NOCC1 [3-G16, N-[(4,5-dihydro-1,2-oxazol-3-yl)methyl]prop-2-enamide]",95.7771
3,"CC(Cl)C(=O)NC(C)c1cnn(CC2CCC2)c1 (stereo not drawn) [5-L15, 2-chloro-N-{1-[1-(cyclobutylmethyl)-1H-pyrazol-4-yl]ethyl}propanamide]",97.2678
4,"COc1ccc(C=C(C#N)C(=O)Nc2cc(C)ccc2C)cc1Cl [9-B22, 3-(3-chloro-4-methoxyphenyl)-2-cyano-N-(2,5-dimethylphenyl)prop-2-enamide]",103.071
5,"C=CC(=O)N1CCc2c(ncn2-c2ccccc2)C1 [3-N09, 1-{1-phenyl-1H,4H,5H,6H,7H-imidazo[4,5-c]pyridin-5-yl}prop-2-en-1-one]",117.719
6,"C=CC(=O)N1CCC(C(=O)N2CCCC(c3cnn(C)c3)C2)CC1 (stereo not drawn) [2-N16, 1-{4-[3-(1-methyl-1H-pyrazol-4-yl)piperidine-1-carbonyl]piperidin-1-yl}prop-2-en-1-one]",99.913
7,"C=CC(=O)N(CC)CC(=O)N1CCN(c2ccc(C#N)cc2F)CC1 [3-D03, N-{2-[4-(4-cyano-2-fluorophenyl)piperazin-1-yl]-2-oxoethyl}-N-ethylprop-2-enamide]",92.9909
8,"CN(C(=O)CCl)C(c1ccc(Cl)cc1)C(F)(F)F (stereo not drawn) [7-J16, 2-chloro-N-[1-(4-chlorophenyl)-2,2,2-trifluoroethyl]-N-methylacetamide]",101.413
9,"CNC(=O)CC(NC(=O)CCl)c1ccc(F)cc1F (stereo not drawn) [4-I16, 3-(2-chloroacetamido)-3-(2,4-difluorophenyl)-N-methylpropanamide]",111.672
10,"CC1CN(C(=O)C(C#N)=Cc2c(Cl)cccc2Cl)CC(C)O1 (stereo not drawn) [8-O12, 3-(2,6-dichlorophenyl)-2-(2,6-dimethylmorpholine-4-carbonyl)prop-2-enenitrile]",124.481
11,"C=CCN(Cc1cccs1)C(=O)CCl [5-B06, 2-chloro-N-(prop-2-en-1-yl)-N-[(thiophen-2-yl)methyl]acetamide]",77.9599
12,"CN(c1ccc(C(=O)CCl)cc1)S(C)(=O)=O [10-F19, N-[4-(2-chloroacetyl)phenyl]-N-methylmethanesulfonamide]",-0.3125
13,"CC(C)C(C)N(Cc1ccns1)C(=O)CCl (stereo not drawn) [5-M12, 2-chloro-N-(3-methylbutan-2-yl)-N-[(1,2-thiazol-5-yl)methyl]acetamide]",77.9599
14,"C=CC(=O)Nc1cc(NC(=O)C2CC3CCC2CC3)ccc1F (stereo not drawn) [1-C17, N-[4-fluoro-3-(prop-2-enamido)phenyl]bicyclo[2.2.2]octane-2-carboxamide]",94.2418
15,"COc1ccc(NC(=O)C(C)Cl)cc1Cl (stereo not drawn) [4-I14, 2-chloro-N-(3-chloro-4-methoxyphenyl)propanamide]",115.102
16,"CS(=O)(=O)N1CCc2cc(C(=O)CCl)ccc21 [10-B19, 2-chloro-1-(1-methanesulfonyl-2,3-dihydro-1H-indol-5-yl)ethan-1-one]",0.3125
17,"CC(Cl)C(=O)Nc1ccc(Cl)cc1Cl (stereo not drawn) [4-L17, 2-chloro-N-(2,4-dichlorophenyl)propanamide]",92.9967
18,"C=CC(=O)NC1CC2CCC(C1)N2S(C)(=O)=O (stereo not drawn) [2-A18, N-{8-methanesulfonyl-8-azabicyclo[3.2.1]octan-3-yl}prop-2-enamide]",153.177
19,"C=CC(=O)N1CCC(C(=O)NCC2([S+](C)[O-])CCC2)CC1 (stereo not drawn) [2-D18, N-[(1-methanesulfinylcyclobutyl)methyl]-1-(prop-2-enoyl)piperidine-4-carboxamide]",114.186
20,"CC(Cl)C(=O)NC(c1ccccc1)c1ccccc1 (stereo not drawn) [5-A21, 2-chloro-N-(diphenylmethyl)propanamide]",92.5319
21,"O=C(CCl)Nc1cc(-n2nnnc2C2CC2)ccc1F [6-E09, 2-chloro-N-[5-(5-cyclopropyl-1H-1,2,3,4-tetrazol-1-yl)-2-fluorophenyl]acetamide]",74.0976
22,"N#CC(=Cc1ccc(N2CCCCCC2)cc1)C(=O)NCC1CCCO1 (stereo not drawn) [9-H15, 3-[4-(azepan-1-yl)phenyl]-2-cyano-N-[(oxolan-2-yl)methyl]prop-2-enamide]",120.749
23,"C=CC(=O)N1CCCCC1c1nc2ccccc2o1 (stereo not drawn) [3-O20, 1-[2-(1,3-benzoxazol-2-yl)piperidin-1-yl]prop-2-en-1-one]",102.046

row,SMILES,% of control remaining [%]
1,"CC(Cl)C(=O)NCC1=CCCOC1 (stereo not drawn) [7-I05, 2-chloro-N-[(5,6-dihydro-2H-pyran-3-yl)methyl]propanamide]",101.099
2,"N#CC(=Cc1cccc(O)c1)C(=O)Nc1ccccc1C(F)(F)F [9-A20, 2-cyano-3-(3-hydroxyphenyl)-N-[2-(trifluoromethyl)phenyl]prop-2-enamide]",94.6816
3,"Cc1cccc(NC(=O)C(C)Cl)c1 (stereo not drawn) [5-P10, 2-chloro-N-(3-methylphenyl)propanamide]",114.39
4,"CC(Cl)C(=O)N1CCC(Oc2ccc(C3CC3)cn2)C1 (stereo not drawn) [7-A18, 2-chloro-1-{3-[(5-cyclopropylpyridin-2-yl)oxy]pyrrolidin-1-yl}propan-1-one]",102.041
5,"CC(Cl)C(=O)N1CC(S(=O)(=O)Nc2ccccc2)C1 (stereo not drawn) [7-G05, 1-(2-chloropropanoyl)-N-phenylazetidine-3-sulfonamide]",89.4819
6,"Cc1cc(C)n2c(-c3c(Cl)cccc3NC(=O)CCl)nnc2n1 [5-M16, 2-chloro-N-(3-chloro-2-{5,7-dimethyl-[1,2,4]triazolo[4,3-a]pyrimidin-3-yl}phenyl)acetamide]",93.9891
7,"C=CC(=O)NCc1nc(-c2ccc(F)cc2)n[nH]1 [3-D04, N-{[3-(4-fluorophenyl)-1H-1,2,4-triazol-5-yl]methyl}prop-2-enamide]",97.8668
8,"Cc1ccc(Oc2ccc(Cl)cc2NC(=O)CCl)cc1 [4-A21, 2-chloro-N-[5-chloro-2-(4-methylphenoxy)phenyl]acetamide]",133.397
9,"C=CC(=O)N1CCC(C(=O)NCc2ccc(OC)cn2)CC1 [3-O19, N-[(5-methoxypyridin-2-yl)methyl]-1-(prop-2-enoyl)piperidine-4-carboxamide]",120.853
10,"O=C(O)C(c1ccccc1)N1C(=O)C=CC1=O (stereo not drawn) [10-E21, 2-(2,5-dioxo-2,5-dihydro-1H-pyrrol-1-yl)-2-phenylacetic acid]",130.313
11,"O=C(CCl)NC1CCCc2cn(C3CCCC3)nc21 (stereo not drawn) [5-O09, 2-chloro-N-(2-cyclopentyl-4,5,6,7-tetrahydro-2H-indazol-7-yl)acetamide]",114.754
12,"CC(Cl)C(=O)NC(C)(C)c1cccc(Cl)c1F (stereo not drawn) [7-E15, 2-chloro-N-[2-(3-chloro-2-fluorophenyl)propan-2-yl]propanamide]",94.5055
13,"C=CC(=O)N1CCC(c2nc(C(=O)O)cs2)CC1 [1-O21, 2-[1-(prop-2-enoyl)piperidin-4-yl]-1,3-thiazole-4-carboxylic acid]",110.066
14,"CC(Cl)C(=O)NCc1ncnn1C(C)C (stereo not drawn) [5-P15, 2-chloro-N-{[1-(propan-2-yl)-1H-1,2,4-triazol-5-yl]methyl}propanamide]",95.8106
15,"NC(=O)c1csc(C(=O)CCl)c1 [10-L06, 5-(2-chloroacetyl)thiophene-3-carboxamide]",114.687
16,"N#CC(=Cc1ccccc1Cl)C(=O)NCc1ccccc1 [9-F13, N-benzyl-3-(2-chlorophenyl)-2-cyanoprop-2-enamide]",78.2022
17,"N#CC(=Cc1ccc2c(c1)OCCO2)C(=O)NC1CCCCC1 [9-J19, 2-cyano-N-cyclohexyl-3-(2,3-dihydro-1,4-benzodioxin-6-yl)prop-2-enamide]",104.569
18,"C=CC(=O)Nc1ccc(F)c(-n2nnnc2C)c1 [2-K11, N-[4-fluoro-3-(5-methyl-1H-1,2,3,4-tetrazol-1-yl)phenyl]prop-2-enamide]",122.541
19,"C=CC(=O)N1CCOC(Cn2nc(C)cc2C)C1 (stereo not drawn) [3-C13, 1-{2-[(3,5-dimethyl-1H-pyrazol-1-yl)methyl]morpholin-4-yl}prop-2-en-1-one]",89.5081
20,"C=CC(=O)NCC1CCc2nnc(C(C)C)n2C1 (stereo not drawn) [2-J03, N-{[3-(propan-2-yl)-5H,6H,7H,8H-[1,2,4]triazolo[4,3-a]pyridin-6-yl]methyl}prop-2-enamide]",84.5953
21,"CC(NC(=O)CCl)C(=O)N1CCCCC1C (stereo not drawn) [5-M06, 2-chloro-N-[1-(2-methylpiperidin-1-yl)-1-oxopropan-2-yl]acetamide]",96.1749
22,"C=CC(=O)N1CCC(n2ncc3ccccc32)CC1 [1-K22, 1-[4-(1H-indazol-1-yl)piperidin-1-yl]prop-2-en-1-one]",113.934
